Test results taken from PubChem BioAssay AID485344 (National Center for Advancing Translational Sciences (NCATS), 2010).
Hit rate of the full screen: of about 340,000 compounds, about 6,900 (2%) were called active. Rule as the data show it: active = inhibition above about 30%; inactive = below that, where a call was filed. The list shows a part of the results, in another mix than the full data. The source gives no active or inactive call for entries shown without one.

Biological target: D(2) dopamine receptor (Homo sapiens) (UniProt P14416)
Assay: HTS Assay for Allosteric Antagonists of the Human D2 Dopamine Receptor: Primary Screen for Antagonists; also: 0% is about no effect
Details: HEK293 TREx D2 cells, calcium flux, dopamine EC80; at 10 µM; stronger effect = higher value
Method in brief: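 Dopamine at EC80 is the agonist stimulus; test compounds precede it by 180 s. Calcium flux read kinetically in a force-coupled, inducible HEK293 T-REx D2 cell line.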

UniProt P14416, sequence (P14416 whole entry, looked up): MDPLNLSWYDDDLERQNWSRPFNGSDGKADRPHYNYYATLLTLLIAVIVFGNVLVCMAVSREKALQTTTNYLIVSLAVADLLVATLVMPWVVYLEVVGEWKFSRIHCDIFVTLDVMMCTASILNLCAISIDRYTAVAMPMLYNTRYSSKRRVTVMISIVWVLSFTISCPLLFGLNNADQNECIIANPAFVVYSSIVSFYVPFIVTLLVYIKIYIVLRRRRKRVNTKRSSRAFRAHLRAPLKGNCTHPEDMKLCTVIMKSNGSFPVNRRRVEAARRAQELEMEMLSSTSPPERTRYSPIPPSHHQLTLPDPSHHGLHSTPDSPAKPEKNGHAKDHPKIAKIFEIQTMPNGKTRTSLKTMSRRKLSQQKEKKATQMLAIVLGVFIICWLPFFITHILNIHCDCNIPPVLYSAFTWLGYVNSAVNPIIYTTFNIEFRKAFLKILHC

In order of rising inhibition:
1. Cc1cc(=O)[nH]c2nnc(SCC(=O)Nc3ccc(OC(F)(F)F)cc3)n12  -25.1%
2. O=C(NCc1ccccc1Cl)c1ccc2c(c1)NC(=O)C(CS(=O)(=O)Cc1ccc(Cl)cc1)N2 (stereo not given)  -22.4%
3. Cc1cc(C)cc(NC(=O)C(=O)NCC(c2ccc3c(c2)OCO3)N2CCN(C)CC2)c1 (stereo not given)  -18.7%
4. O=C(COc1ccccc1)NCCc1csc(-c2ccc(Cl)cc2)n1  -18.2%
5. O=C(c1ccc2c(c1)OCCO2)N(Cc1cccnc1)c1nc2c(Cl)cccc2s1  -16.1%
6. O=C(CN1C(=O)COc2ccc(S(=O)(=O)NC3CCCC3)cc21)NCc1ccccc1Cl  -11.6%
7. COc1ccc(Cl)cc1NC(=O)Cn1c(=O)n(Cc2ccc(F)cc2)c(=O)c2cccnc21  -11.5%
8. CC1CCc2c(sc3nc(-c4cc5cc(Br)ccc5oc4=O)[nH]c(=O)c23)C1 (stereo not given)  -11.3%
9. COc1ccc(Br)c(C(=O)Nc2cc3c(cc2N2CCOCC2)n(C)c(=O)n3C)c1  -10.9%
10. CN1C(=O)Cc2cc(S(=O)(=O)N3CCN(c4ccc(Cl)cc4)CC3)ccc21  -10.3%
11. CCc1nn2c(=O)cc(COc3ccc(/C=C(\C#N)C(=O)Nc4ccc(F)cc4)cc3OC)nc2s1  -10.3%
12. CC1CN(C(=O)N2CCC(C(=O)NCc3ccccc3F)CC2)c2cc(Cl)ccc2O1 (stereo not given)  -9.7%
13. COc1ccc(-c2nnc(SCC(=O)Nc3cccc(C(F)(F)F)c3)nc2-c2ccc(OC)cc2)cc1  -9.47%
14. CCOc1ccc(CCNC(=O)c2cnc3sc(N(CC)CC)nn3c2=O)cc1OCC  -8.7%
15. COc1cccc(Cn2c(CNS(=O)(=O)c3ccc(F)c(Cl)c3)nc3cccnc32)c1  -8.69%
16. C=Cc1ccc(Cn2c(C(=O)O)c(CNC3CCCCC3)c3ccc(C)cc32)cc1  -8.35%
17. CCC(C(=O)NCCC(C)C)N(C(=O)Cn1nnc(-c2ccc(C)cc2)n1)c1cccc(O)c1 (stereo not given)  -7.92%
18. Cc1ccc2nc(-c3ccc(C)s3)c(Nc3ccc4c(c3)OCCO4)n2c1  -7.62%
19. Cn1ncc2c(Nc3cccc(C#N)c3)ncnc21  -7.56%
20. Cc1ccc(-c2c(CN3CCN(c4cccc(C)c4)C(C)C3)csc2C)cc1 (stereo not given)  -6.85%
21. CC(C)CC(=O)N1c2nc(C(C)C)nn2C2(CCCCC2)[C@@H]2CCCC[C@@H]21  -5.55%
22. CCc1ccc(NC(=O)Cn2c(=O)n(CCC(=O)N3CCc4ccccc4C3)c(=O)c3ccccc32)cc1  -5.46%
23. CCOC(=O)c1cccc(NC(=O)c2cc(C)nc3c2c(C)nn3-c2ccc(C)cc2)c1  -5.07%
24. CCN(CC)CCNC(=O)c1c(C)oc2ncnc(N3CCOCC3)c12  -4.82%
25. O=C(CCS(=O)(=O)c1cccc2nonc12)Nc1c(F)cccc1F  -4.41%
26. Cc1cc(C)cc(NC(=O)N2CCC3(CC2)Oc2ccccc2C(=O)N3Cc2ccccc2F)c1  -3.95%
27. Cc1cccc(C)c1OCC(=O)Nc1ncn[nH]1  -2.69%
28. Cc1ccccc1OCCSc1nnc(-c2cccs2)o1  -2.65%
29. CCOC(=O)c1ccc(CN(Cc2ccc(F)cc2)S(=O)(=O)c2ccc(F)c(C(=O)Nc3ccc(Cl)cc3F)c2)cc1  -2.48%
30. CCOc1ccc(NC(=O)c2c(NCc3cccnc3)sc3c2CCCC3)cc1  -2.25%
31. CCOC(=O)CNc1nc(Oc2ccc(=O)n(C)n2)nc(N(CC)CC)n1  -2.15%
32. CN(CCCNC(=O)c1cc2c(Cl)nc3ccccc3c2s1)Cc1ccccc1  -1.63%
33. CCOC(=O)c1ccc(NC(=O)C2=C(C)C(=O)OC23CCN(C(C)=O)CC3)cc1  -1.27%
34. Cc1ccc(NC(=O)Cn2c(=O)n(CCC(C)C)c(=O)c3cccnc32)cc1C  -1.22%
35. COC(=O)c1c(NC(=O)c2cc3ccccc3c(=O)o2)sc2c1CCCC2  -0.23%
36. COc1cccc2c1ncc1c(-c3ccc(C)cc3)nn(-c3cccc([N+](=O)[O-])c3)c12  0.187%
37. CCOc1ccc(NC(=O)C(C)n2c(=O)cc(-c3ccccc3)c3c(C)nn(C)c32)cc1 (stereo not given)  0.479%
38. COc1ccc(NC(=O)CSc2nc3c([nH]c4ccccc43)c(=O)n2-c2ccccc2)c(OC)c1  0.542%
39. COc1ccc(OC)c(NC(=O)c2cc(-c3ccc(Cl)s3)nc3ccccc23)c1  0.693%
40. CCOc1ccc(NC(=O)Cn2c3ncccc3c(=O)n2-c2ccc(CC)cc2)cc1  0.729%
41. O=S(=O)(NCC(c1cccs1)S(=O)(=O)c1ccccc1)c1ccc(F)cc1 (stereo not given)  0.912%
42. CCc1cccc(C)c1NC(=O)CSc1n[nH]c(-c2ccccc2)n1  1.24%
43. CC(C)COc1ccc(C(=O)Nc2cc3nn(-c4ccccc4)nc3cc2Cl)cc1  1.33%
44. CCOc1ccc(-n2c(SCC(=O)N3CCc4ccccc43)nc3c([nH]c4ccccc43)c2=O)cc1  1.4%
45. CCN(CC)S(=O)(=O)c1ccc(NC(=O)NCc2noc3ccc(C)cc23)cc1  1.75%
46. Cc1cc(S(=O)(=O)C(CNC(=O)c2ccc(OC(C)C)cc2)c2cccs2)ccc1F (stereo not given)  2.75%
47. Cc1c(Cl)cccc1NC(=O)CSc1ncc2c(n1)-c1ccccc1N(C)S2(=O)=O  3.9%
48. CCn1c2ccccc2c2nnc(SCC(=O)Nc3ccccc3OC)nc21  4.12%
49. CC(=O)c1cccc(NC(=O)C(C)n2c(=O)cc(C)c3c(C)nn(-c4ccccc4)c32)c1 (stereo not given)  4.17%
50. Cc1cccc(-c2nc(SCC(=O)N3CCc4ccccc43)c3c(=O)n(C)c(=O)n(C)c3n2)c1  4.51%
51. Cc1ccc(CNC(=O)c2oc3c(c2C)-c2nn(Cc4ccc(Cl)cc4)cc2CC3)cc1  4.61%
52. COc1ccc(CCn2c(=O)c3cccnc3n(CC(=O)Nc3ccc(C)c(F)c3)c2=O)cc1OC  4.72%
53. CCOC(=O)c1ccc(NC(=O)C2CCN(S(=O)(=O)c3ccc4c(c3)CCCC(=O)N4)CC2)cc1  5.41%
54. Cc1cccc(N(CC(O)Cn2c3ccccc3c3ccccc32)S(=O)(=O)c2ccc(F)cc2)c1 (stereo not given)  5.5%
55. Cc1cc(C)cc(NC(=O)C(=O)NCC(c2cccnc2)N2CCOCC2)c1 (stereo not given)  6.68%
56. Cc1ccc(C2CCN(C(=O)c3cnn(-c4cccc(Cl)c4)c3C3CCN(C(=O)OC(C)(C)C)CC3)C2)cc1 (stereo not given)  6.99%
57. COc1ccccc1CNC(=O)CCc1c(C)nn(-c2ccc(N3CCOCC3)nn2)c1C  7.16%
58. CC(C)c1ccc(NC(=O)c2cc3sc(Cl)cc3n2C)cc1  7.38%
59. Cc1nc2cccnc2n1C1CCN(S(C)(=O)=O)CC1  7.41%
60. COc1cc(Nc2nc3ccc(Cl)cc3nc2-n2nc(C)cc2C)cc(OC)c1  8.46%
61. O=C(Nc1ccc(F)c(F)c1)C(c1ccccc1)N1Cc2ccccc2C1=O (stereo not given)  8.5%
62. COc1cccc(N2CCN(C(=O)c3cccc(-n4c(C)nc5cccnc54)c3)CC2)c1  8.67%
63. CCOc1ccc(OCC)c(NC(=O)C2CCN(S(=O)(=O)c3c(C)noc3/C=C/c3ccccc3F)CC2)c1  8.82%
64. COc1ccc(-n2ncc3c(NC(C)(C)CO)ncnc32)cc1  8.99%
65. O=S(=O)(Nc1ccc(Br)cc1F)c1ccc2nc(-c3ccccc3)[nH]c2c1  10.5%
66. COc1ccc(OC)c(CNS(=O)(=O)c2ccc3c(c2)CCCN3C(C)=O)c1  10.8%
67. Cc1cc(C)c(NC(=O)Cn2cc(S(=O)(=O)Cc3ccccc3F)c3ccccc32)c(C)c1  11.1%
68. O=C(NCc1ccco1)c1ccc2c(c1)N(Cc1ccccc1)C(=O)c1ccccc1S2(=O)=O  13.9%
69. COc1ccc(CCNC(=O)c2ccc(Nc3nc4ccccc4n4nnnc34)cc2)cc1OC  15.9%
70. Cc1ccc2onc(CC(=O)N3CCN(c4ccc(F)cc4)CC3)c2c1  16.1%
71. COc1ccc(NC(=O)N(CCC(C)C)C(C)c2cccs2)c(OC)c1 (stereo not given)  16.1%
72. COc1ccc(N2CCN(Cc3nc4c(c(=O)[nH]c(=O)n4C)n3Cc3ccc(Cl)cc3)CC2)cc1  16.3%
73. COc1ccc(NC(=O)Cn2c(=O)c(-c3cc(C)ccc3NC(C)=O)nc3ccccc32)c(OC)c1  18.1%
74. Cc1ccccc1-c1nn2c(=O)cc(CN3CCN(C(=O)/C=C/c4ccccc4)CC3)nc2s1  18.7%
75. NCc1nc2cccnc2n1Cc1ccccc1Cl  19.2%
76. COc1ccc(NC(=O)Cn2nnc(C(=O)NCCc3ccccc3)c2N)cc1  20.3%
77. Cc1ccc(Cl)cc1NC(=O)CCn1cnc2ccccc2c1=O  21%
78. O=C(NCCc1ccccc1)c1ccc2c(c1)N(Cc1ccc(F)cc1)C(=O)c1ccccc1S2(=O)=O  21.1%
79. COc1ccccc1NC(=O)N(Cc1nnc2n1CCCCC2)c1ccc(F)cc1  22.3%
80. COc1ccccc1N1CCN(C(=O)Cn2c(=O)nc(-c3ccccc3)c3ccccc32)CC1  23.4%

`COc1c2c(cc3c1C(CC(O)Cc1ccccc1)N(C)CC3)OCO2` (stereo not given) was tested, and the inhibition was active: 57.2%.
In the case of `CC1CCC2(CC1)NC(=O)N(NC(=O)c1cccc(N(C)C)c1)C2=O` (stereo not given), the inhibition is reported as active: 33.5%.
For `CN1CCc2c(sc(NC(=O)Cc3ccccc3)c2C#N)C1`, the inhibition was active: 69.5%.
In the case of `O=C(Nc1ccccc1)C1CC(=O)n2c(nc3ccccc32)N1` (stereo not given), the inhibition is reported as active: 33.6%.
For `CCCCOC(=O)/C=C/c1ccc(OC(=O)OC)c(OC(=O)OC)c1`, the inhibition was active: 73.5%.
`Cc1cccc(C)c1OCC(O)CN1CCN(c2ccccn2)CC1` (stereo not given) was tested, and the inhibition was active: 77.5%.
For `Cc1sc2ncnc(NC3CCN(Cc4ccccc4)CC3)c2c1C`, the inhibition was active: 68%.
`Cc1ccccc1CS(=O)(=O)CCC(=O)NCCCN1CCN(c2ccccc2F)CC1` was tested, and the inhibition was active: 55.2%.
`O=C(CSc1nc2ccccc2o1)Nc1nc(-c2ccccc2)cs1` was tested, and the inhibition was active: 30%.
With `O=C(COc1ccc(Br)cc1)NCCNC(=O)c1ccncc1` the inhibition was active: 47.3%.
With `CN1CCN(C(c2cccc(Cl)c2)c2ccccc2Cl)CC1` (stereo not given) the inhibition was active: 82.6%.
`CCc1ccc(NC(=O)CCC(=O)Nc2nnc(C(C)C)s2)cc1` was tested, and the inhibition was active: 43.2%.
For `CC1CCCC(C)N1C(=O)c1ccc(S(=O)(=O)NCc2ccco2)cc1` (stereo not given), the inhibition was active: 36.7%.
`O=[N+]([O-])c1ccc(CNc2ccc(Cl)cc2)s1` was tested, and the inhibition was active: 95.9%.
In the case of `CCOc1ccc(C(=O)NCc2ccncc2)cc1OCC`, the inhibition is reported as active: 34.4%.
